The list shows a part of the results. At the low end of the ranking, values are background and their order means little.
These sequences were tested against GST-SBP-SLBP (stem-loop binding protein) (UniProt Q14493) (assay: targeted RNA Bind-n-Seq). Details: RBNS binding buffer: 25 mM Tris pH 7.5, 150 mM KCl, 3 mM MgCl2, 0.1% Tween, 0.5 mg/mL BSA, 1 mM DTT; 27 nM protein, 750 pM RNA pool; temperature not stated; high values mean tight binding.
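Further: DESeq read counts versus GST-SBP nonspecific binding control pulldown.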

Sequence | binding signal (log2 fold change)
GGUCACGUCUCAAUCAACUCAAUCUCAGGAGUUUGCUCCUGUUUAUUCAACAGCUCGCAGUCAAG | -0.123
GGUCACGUCUCAAUCAACUCCUCAGAGGGGGGGAAAACCCCUUUGCCCUCCAAAUCAACAGCUCGCAGUCAAG | 0.317
GGUCACGUCUCAAUCAACUCAUUAGAGGGGGGGAAAACCCCUUUGCCCUCACCAUCAACAGCUCGCAGUCAAG | 0.0384
GGUCACGUCUCAAUCAACUCUAUCUCAGGAGUUUCCUCCUGCUAUUUCAACAGCUCGCAGUCAAG | 0.0291
GGUCACGUCUCAAUCAACUCUUCUUCCAGGGAAAGCCCUGGCUAACUCAACAGCUCGCAGUCAAG | 0.193
GGUCACGUCUCAAUCAACUCAACUUCCAGGGAAAGCCCUGGUAAUCUCAACAGCUCGCAGUCAAG | 0.208
GGUCACGUCUCAAUCAACUCUUUUUCCAGGGAAACCCCUGGCAGUCUCAACAGCUCGCAGUCAAG | 0.0257
GGUCACGUCUCAAUCAACUCUUCGCCAGGAGUUUACUCCUGUAUAUUCAACAGCUCGCAGUCAAG | -0.0239
GGUCACGUCUCAAUCAACUCAGUCUCAGGAGUUUCCUCCUGCAUUUUCAACAGCUCGCAGUCAAG | 0.0195
GGUCACGUCUCAAUCAACUCUUCCCCAGGAGUUUUCUCCUGUUUAUUCAACAGCUCGCAGUCAAG | 0.0761
GGUCACGUCUCAAUCAACUCAAUUCCAGGAGUUUUCUCCUGCUUAUUCAACAGCUCGCAGUCAAG | 5.68e-05
GGUCACGUCUCAAUCAACUCAAUCCCCAGGGAAAUCCCUGGUAAAUUCAACAGCUCGCAGUCAAG | 0.453
GGUCACGUCUCAAUCAACUCAAUAGAGGGGGGGAAAACCCCUUUACCCUCACCGUCAACAGCUCGCAGUCAAG | -0.0739
GGUCACGUCUCAAUCAACUCUUUUUCCAGGGAAACCCCUGGCUUUUUCAACAGCUCGCAGUCAAG | -0.29
GGUCACGUCUCAAUCAACUCUCCGGAGGGGGGGAAAACCCCUUUACCCUCAUAUUCAACAGCUCGCAGUCAAG | 0.03
GGUCACGUCUCAAUCAACUCAAUCCCCAGGGAAAGCCCUGGCAUUCUCAACAGCUCGCAGUCAAG | -0.00141
GGUCACGUCUCAAUCAACUCAUUCUCAGGAGUUUCCUCCUGUAUACUCAACAGCUCGCAGUCAAG | -0.0228
GGUCACGUCUCAAUCAACUCUAUUUCCAGGGAAACCCCUGGCUAAUUCAACAGCUCGCAGUCAAG | 0.0719
GGUCACGUCUCAAUCAACUCAACUUCCAGGGAAAGCCCUGGCAUACUCAACAGCUCGCAGUCAAG | -0.193
GGUCACGUCUCAAUCAACUCUACUCCAGGAGUUUUCUCCUGCUUACUCAACAGCUCGCAGUCAAG | -0.102
GGUCACGUCUCAAUCAACUCCCACGAGGGGGGGAAAACCCCUUUACCCUCCAUAUCAACAGCUCGCAGUCAAG | 0.134
GGUCACGUCUCAAUCAACUCAUUUCCCAGGGAAACCCCUGGCAUAUUCAACAGCUCGCAGUCAAG | 0.236
GGUCACGUCUCAAUCAACUCCAACGAGGGGGGGAAAACCCCUUUACCCUCAAAAUCAACAGCUCGCAGUCAAG | -0.12
GGUCACGUCUCAAUCAACUCUUUCUCCAGGGAAAACCCUGGCAAAUUCAACAGCUCGCAGUCAAG | 0.163
GGUCACGUCUCAAUCAACUCUACUUCCAGGGAAAUCCCUGGCUAUCUCAACAGCUCGCAGUCAAG | 0.17

Sequence | binding signal (log2 fold change)
GGUCACGUCUCAAUCAACUCUAUAGAGGGGGGGAAAACCCCUUUGCCCUCAAAUUCAACAGCUCGCAGUCAAG | 0.103
GGUCACGUCUCAAUCAACUCUAUCUCAGGAGUUUCCUCCUGUUUACUCAACAGCUCGCAGUCAAG | -0.000934
GGUCACGUCUCAAUCAACUCUAUCGCAGGAGUUUACUCCUGGUUUCUCAACAGCUCGCAGUCAAG | 0.00963
GGUCACGUCUCAAUCAACUCAAUCUCAGGAGUUUGCUCCUGUUUUUUCAACAGCUCGCAGUCAAG | -0.203
GGUCACGUCUCAAUCAACUCUUCCCCCAGGGAAACCCCUGGUUUACUCAACAGCUCGCAGUCAAG | 0.0598
GGUCACGUCUCAAUCAACUCCUUAGAGGGGGGGAAAACCCCUUUACCCUCAACCUCAACAGCUCGCAGUCAAG | 0.395
GGUCACGUCUCAAUCAACUCAGUCCCCAGGGAAAUCCCUGGUAAAUUCAACAGCUCGCAGUCAAG | -0.213
GGUCACGUCUCAAUCAACUCUAUUCCCAGGGAAAACCCUGGUAAAUUCAACAGCUCGCAGUCAAG | 0.145
GGUCACGUCUCAAUCAACUCUUUAGAGGGGGGGAAAACCCCUUUGCCCUCAUACUCAACAGCUCGCAGUCAAG | 0.164
GGUCACGUCUCAAUCAACUCACACGAGGGGGGGAAAACCCCUUUACCCUCUUACUCAACAGCUCGCAGUCAAG | 0.0434
GGUCACGUCUCAAUCAACUCAUUUCCAGGAGUUUCCUCCUGUUUAUUCAACAGCUCGCAGUCAAG | -0.274
GGUCACGUCUCAAUCAACUCAUCUCCAGGAGUUUACUCCUGCUAAUUCAACAGCUCGCAGUCAAG | 0.12
GGUCACGUCUCAAUCAACUCUUCUCCAGGAGUUUUCUCCUGCAUACUCAACAGCUCGCAGUCAAG | -0.0841
GGUCACGUCUCAAUCAACUCCUCAGAGGGGGGGAAAACCCCUUUGCCCUCAAUUUCAACAGCUCGCAGUCAAG | -0.0837
GGUCACGUCUCAAUCAACUCAAUAGAGGGGGGGAAAACCCCUUUGCCCUCGUCAUCAACAGCUCGCAGUCAAG | -0.555
GGUCACGUCUCAAUCAACUCUUCGCCAGGAGUUUUCUCCUGUAAAUUCAACAGCUCGCAGUCAAG | 0.133
GGUCACGUCUCAAUCAACUCUUUCGAGGGGGGGAAAACCCCUUUACCCUCACCGUCAACAGCUCGCAGUCAAG | -0.156
GGUCACGUCUCAAUCAACUCUACUCCAGGAGUUUCCUCCUGCAUUCUCAACAGCUCGCAGUCAAG | -0.0861
GGUCACGUCUCAAUCAACUCAUCUUCAGGAGUUUACUCCUGCUUAUUCAACAGCUCGCAGUCAAG | -0.088
GGUCACGUCUCAAUCAACUCAUCUCCAGGAGUUUUCUCCUGUUAACUCAACAGCUCGCAGUCAAG | 0.07
GGUCACGUCUCAAUCAACUCAACGCCAGGAGUUUCCUCCUGUUAAUUCAACAGCUCGCAGUCAAG | 0.0767
GGUCACGUCUCAAUCAACUCUACUUCCAGGGAAAUCCCUGGUAAUUUCAACAGCUCGCAGUCAAG | 0.188
GGUCACGUCUCAAUCAACUCCCCAGAGGGGGGGAAAACCCCUUUGCCCUCCAUUUCAACAGCUCGCAGUCAAG | -0.0539
GGUCACGUCUCAAUCAACUCAACUCCCAGGGAAAUCCCUGGCUUACUCAACAGCUCGCAGUCAAG | 0.0219
GGUCACGUCUCAAUCAACUCUUUCUCAGGAGUUUUCUCCUGUAUACUCAACAGCUCGCAGUCAAG | -0.302

Sequence | binding signal (log2 fold change)
GGUCACGUCUCAAUCAACUCAUCCCCAGGAGUUUUCUCCUGUUUAUUCAACAGCUCGCAGUCAAG | 0.217
GGUCACGUCUCAAUCAACUCUUUCCCAGGAGUUUCCUCCUGUUUUUUCAACAGCUCGCAGUCAAG | -0.195
GGUCACGUCUCAAUCAACUCUUCCCCCAGGGAAAGCCCUGGCAAAUUCAACAGCUCGCAGUCAAG | 0.0219
GGUCACGUCUCAAUCAACUCUUCUCCCAGGGAAACCCCUGGUAAACUCAACAGCUCGCAGUCAAG | 0.142
GGUCACGUCUCAAUCAACUCUUUCUCAGGAGUUUUCUCCUGCUAUUUCAACAGCUCGCAGUCAAG | -0.0929
GGUCACGUCUCAAUCAACUCAUCGCCAGGAGUUUCCUCCUGCAUUUUCAACAGCUCGCAGUCAAG | -0.0526
GGUCACGUCUCAAUCAACUCAUCGUCCAGGGAAAACCCUGGUAAAUUCAACAGCUCGCAGUCAAG | -0.0601
GGUCACGUCUCAAUCAACUCAGUCCCAGGAGUUUACUCCUGCUUAUUCAACAGCUCGCAGUCAAG | 0.0925
GGUCACGUCUCAAUCAACUCAACGGAGGGGGGGAAAACCCCUUUACCCUCAAAUUCAACAGCUCGCAGUCAAG | -0.202
GGUCACGUCUCAAUCAACUCAAUCCCCAGGGAAAGCCCUGGUAUUUUCAACAGCUCGCAGUCAAG | 0.0192
GGUCACGUCUCAAUCAACUCAAUCCCAGGAGUUUACUCCUGCAUACUCAACAGCUCGCAGUCAAG | 0.0286
GGUCACGUCUCAAUCAACUCAACGGCAGGAGUUUACUCCUGGAUAUUCAACAGCUCGCAGUCAAG | -0.0267
GGUCACGUCUCAAUCAACUCUAUCGCAGGAGUUUUCUCCUGGUAAUUCAACAGCUCGCAGUCAAG | -0.00957
GGUCACGUCUCAAUCAACUCAGUCCCAGGAGUUUUCUCCUGUUUUUUCAACAGCUCGCAGUCAAG | 0.128
GGUCACGUCUCAAUCAACUCAAUCCCCAGGGAAAUCCCUGGUAUACUCAACAGCUCGCAGUCAAG | 0.294
GGUCACGUCUCAAUCAACUCUCACGAGGGGGGGAAAACCCCUUUGCCCUCACAAUCAACAGCUCGCAGUCAAG | 0.296
GGUCACGUCUCAAUCAACUCUUCUUCCAGGGAAAGCCCUGGUAAUUUCAACAGCUCGCAGUCAAG | -0.0148
GGUCACGUCUCAAUCAACUCAAUCCCCAGGGAAAACCCUGGUUUAUUCAACAGCUCGCAGUCAAG | -0.398
GGUCACGUCUCAAUCAACUCUUUCCCAGGAGUUUACUCCUGUUUUUUCAACAGCUCGCAGUCAAG | -0.118
GGUCACGUCUCAAUCAACUCAGUUCCAGGAGUUUCCUCCUGCUAAUUCAACAGCUCGCAGUCAAG | 0.0676
GGUCACGUCUCAAUCAACUCAAUCUCCAGGGAAAACCCUGGCUUUUUCAACAGCUCGCAGUCAAG | -0.00676
GGUCACGUCUCAAUCAACUCCAUAGAGGGGGGGAAAACCCCUUUACCCUCAAUUUCAACAGCUCGCAGUCAAG | -0.441
GGUCACGUCUCAAUCAACUCUUUCCCAGGAGUUUCCUCCUGUUAAUUCAACAGCUCGCAGUCAAG | 0.0321
GGUCACGUCUCAAUCAACUCAUCUCCCAGGGAAAACCCUGGCUAUCUCAACAGCUCGCAGUCAAG | 0.3
